Source: PubChem BioAssay AID2675 (National Center for Advancing Translational Sciences (NCATS), 2010)
Hit rate of the full screen: of about 280,000 compounds, about 100 (0.036%) were called active. The shares of active, inactive and inconclusive entries below differ from those in the screen. The call rests on the fitted dose curve; in most records, active means well fitted inhibition curve with a large enough effect in the signal ratio, with a control signal flat (not every such curve was filed as active); inconclusive means small, poorly fitted or top-dose-only effect, or effect the other way, or a change in a side signal; inactive means no such curve, though single readings can be large or run the other way; the % refers to the signal ratio. A potency beside an inconclusive call is a rough fit, not a confirmed value. “Side channel” marks fits to a control or component signal instead of the main read-out.

target: Muscleblind-like protein 1 (Homo sapiens) (UniProt Q9NR56); test: qHTS Assay for Inhibitors of MBNL1-poly(CUG) RNA binding; settings: TR-FRET MBNL1-His/biotin-(CUG)12 binding, 665/545 ratio; activity change, negative = inhibition: at 57.5 µM (top of the series)
Chain of UniProt Q9NR56 (Q9NR56 whole entry, looked up): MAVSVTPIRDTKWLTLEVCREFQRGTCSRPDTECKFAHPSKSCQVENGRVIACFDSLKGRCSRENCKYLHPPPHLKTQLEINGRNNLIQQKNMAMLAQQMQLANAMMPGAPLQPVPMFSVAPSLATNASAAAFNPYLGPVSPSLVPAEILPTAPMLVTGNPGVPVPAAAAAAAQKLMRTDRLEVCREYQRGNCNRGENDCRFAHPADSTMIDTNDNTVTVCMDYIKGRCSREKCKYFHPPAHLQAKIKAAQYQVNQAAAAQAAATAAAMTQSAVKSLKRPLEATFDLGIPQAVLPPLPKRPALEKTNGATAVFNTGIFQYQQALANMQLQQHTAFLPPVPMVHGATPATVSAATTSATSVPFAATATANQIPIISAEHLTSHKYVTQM
Procedure, shortened: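 TR-FRET readout: Ex 340 nm, 665/545 nm emission ratio, normalized to buffer-only (basal) and MBNL1-(CUG)12 controls. Complex of MBNL1-His with Biotin-(CUG)12, compounds 92 nM–58 uM, incubated 60 min at room temperature.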
On the % scale 0 is the no-effect control and ±100 the full control effect; potency means the concentration at half of the fitted maximal effect; tags describe the fitted curve by direction and shape or compound fluorescence and quenching.

Compound | Potency | activity change, negative = inhibition
Cc1ccc(NC(=O)C2CC(Cl)=CCC2C(=O)O)c([N+](=O)[O-])c1 (stereo not drawn) | inconclusive: 35.5 µM [quencher, side channel, single point] | –
O=C(COc1ccc2c(-c3ccccc3)cc(=O)oc2c1)NCCCn1ccnc1 | inconclusive: 28.2 µM [quencher, side channel, partial curve] | –
COCC(=O)Nc1cc([N+](=O)[O-])ccc1OC | inconclusive: 12.6 µM [quencher, side channel, partial curve] | –
CCN1CCN(C(=O)c2cc3c(s2)-c2c(C)cccc2OC3)CC1 | inconclusive: 15.8 µM [quencher, side channel, partial curve] | –
c1ccc(Cc2noc(CN3CCN(C4CCc5ccccc5C4)CC3)n2)cc1 (stereo not drawn) | inactive | –
COc1ccc(/C=C2\CCCc3c2nc2ccccc2c3C(=O)O)cc1OC | inconclusive: 12.6 µM [quencher, side channel, partial curve] | –
O=C(O)COc1c(Cl)cc(/C=C2/NC(=O)NC2=O)cc1Br | inconclusive: 17.8 µM [quencher, side channel, partial curve] | –
Cc1nc2ccc(NC(=S)N3CCN(c4ccccn4)CC3)cc2nc1C | inconclusive: 0.1 µM [fluorescent, side channel, full curve] | –
COc1ccc(/C=C2\SC(=S)N(C(C)C(=O)NC3C=CS(=O)(=O)C3)C2=O)cc1 (stereo not drawn) | inconclusive: 22.4 µM [quencher, single point] | –
CC(=O)N1CCC(C(=O)OCc2ccc(Cl)cc2)(c2ccccc2)CC1 | inactive | –
CN(C)/C=C/C(=O)c1ccc(Cl)s1 | inconclusive: 22.4 µM [quencher, side channel, single point] | –
CN(C1CCS(=O)(=O)C1)S(=O)(=O)c1ccccc1 (stereo not drawn) | inactive | –
Cc1cc(N2C(=O)C3CC=CCC3C2=O)no1 (stereo not drawn) | inconclusive: 63.1 µM [inhibitor, partial curve] | –
CCCCOc1ccc(C(=O)NC(=S)Nc2ccc(CN3CCOCC3)cc2)cc1 | – | inactive: -6.69% [at 11.5 µM]
CC(Sc1nnc(Cc2ccc([N+](=O)[O-])cc2)o1)C(N)=O (stereo not drawn) | inconclusive: 31.6 µM [quencher, side channel, single point] | –
CNC(=O)c1[nH]cnc1C(=O)Nc1ccc(C)cc1 | inactive | –
O=C(/C=N/O)Nc1ccc2sc3ccccc3c2c1 | inconclusive: 0.141 µM [quencher, side channel, full curve, poor fit] | –
CCOc1ccc(/C=C2/Sc3ccc(C(=O)NCC4CCCO4)cc3N(C)C2=O)cc1OC (stereo not drawn) | inconclusive: 28.2 µM [quencher, side channel, single point] | –
Cc1ccc(C(=O)c2ccccc2C(=O)OCC(=O)Nc2cccc([N+](=O)[O-])c2)cc1 | inconclusive: 22.4 µM [quencher, side channel, partial curve] | –

Compound | Potency | activity change, negative = inhibition
O=c1nc2c(-c3ccccc3F)n[nH]n2c2ccccc12 | inactive | –
O=C(NC(=S)Nc1ccc(F)c([N+](=O)[O-])c1)c1ccccc1F | inconclusive: 25.1 µM [quencher, side channel, single point] | –
CCOc1ccc(C2NC(=O)NC(C)=C2[N+](=O)[O-])cc1OC (stereo not drawn) | inconclusive: 15.8 µM [quencher, side channel, partial curve] | –
Cc1ccccc1C(=O)O/N=C(\N)c1ccc([N+](=O)[O-])cc1 | inconclusive: 12.6 µM [quencher, side channel, partial curve] | –
COc1ccc(C)cc1NC(=O)c1ccccc1NS(=O)(=O)c1ccc(Cl)s1 | inactive | –
CCOC(=O)c1snc2c(=O)[nH]cnc12 | inconclusive: 14.1 µM [quencher, side channel, partial curve] | –
CC(/C=C/c1ccc2c(c1)OCO2)=N\NC(=O)c1ccccc1 | inconclusive: 6.31 µM [quencher, side channel, partial curve] | –
O=c1oc2cc(OCc3ccc([N+](=O)[O-])cc3)ccc2c2c1CCCC2 | inconclusive: 1 µM [quencher, side channel, single point] | –
CC1=NN(c2ccccc2)C(=O)/C1=C/C=C/c1ccc(N(C)C)cc1 | inconclusive: 3.16 µM [quencher, partial curve] | –
O=C(NC1CCCc2ccccc21)c1ccc(S(=O)(=O)N2CCOCC2)cc1 (stereo not drawn) | inactive | –
CCOC(=O)C(=CNc1ccccc1C)C(=O)OCC | inconclusive: 3.55 µM [quencher, side channel, single point] | –
CC(C)NC(=O)C1CCCN(S(=O)(=O)c2cccc3nonc23)C1 (stereo not drawn) | inconclusive: 15.8 µM [quencher, side channel, partial curve] | –
O=C(CSc1nc2c(cnn2-c2ccc(F)cc2)c(=O)[nH]1)N1CCCCC1 | inconclusive: 0.631 µM [quencher, side channel, single point] | –
CCOC(=O)CCCNC(=O)CSc1nnc(-c2ccccc2)c(-c2ccccc2)n1 | inconclusive: 14.1 µM [quencher, side channel, partial curve] | –
CNc1nc(N/N=C/c2ccc([N+](=O)[O-])cc2)nc(Nc2ccccc2)n1 | inconclusive: 7.94 µM [quencher, side channel, partial curve] | –
O=C(N/N=C/c1ccc(OCC(=O)N2CCCCC2)cc1)c1ccccc1 | inconclusive: 31.6 µM [quencher, side channel, partial curve] | –
CC(C)OC(=O)CC(=O)CSc1nc2c(cc1C#N)CCC2 | inconclusive: 17.8 µM [quencher, side channel, partial curve] | –
COc1ccc(Cl)cc1NC(=O)CN1CCC(n2nnc3cc(C)ccc32)CC1 | inconclusive: 0.631 µM [quencher, side channel, single point] | –
COc1ccc(CNC(=O)/C=C/c2cc([N+](=O)[O-])ccc2OC(F)F)cc1OC | inconclusive: 25.1 µM [quencher, side channel, partial curve] | –
